Laboratory results from EPA's CvTdb concentration-time database.
This continues a long series; more values of the same kind are listed elsewhere.

How the values were obtained:
Assay in all cases: concentration in plasma after dosing
[1] = system: Rat; conditions: dosed: 2-Hydroxy-4-methoxybenzophenone, 500 mg/kg, oral, Female, F344
[2] = system: Mouse; conditions: 6 h; dosed: 2-Hydroxy-4-methoxybenzophenone; 250 mg/kg; oral; Female; B6C3F1
[3] = system: Mouse; conditions: 1 h; dosed: 2-Hydroxy-4-methoxybenzophenone; 500 mg/kg; oral; Female; B6C3F1
[4] = system: Mouse; conditions: 6 h; dosed: 2-Hydroxy-4-methoxybenzophenone; 50 mg/kg; iv; Female; B6C3F1
[5] = system: Rat; conditions: dosed: 2-Hydroxy-4-methoxybenzophenone, 8 mg/kg, iv, Male, F344
[6] = system: Mouse; conditions: 1 h; dosed: 2-Hydroxy-4-methoxybenzophenone; 250 mg/kg; oral; Male; B6C3F1
[7] = system: Mouse; conditions: 4 h; dosed: 2-Hydroxy-4-methoxybenzophenone; 50 mg/kg; iv; Male; B6C3F1
[8] = system: Rat; conditions: dosed: 2-Hydroxy-4-methoxybenzophenone, 8 mg/kg, iv, Female, F344
[9] = system: Rat; conditions: 16 h; dosed: 2-Hydroxy-4-methoxybenzophenone; 8 mg/kg; iv; Male; F344
[10] = system: Rat; conditions: dosed: 2-Hydroxy-4-methoxybenzophenone, 100 mg/kg, oral, Female, F344
[11] = system: Mouse; conditions: 5 min; dosed: 2-Hydroxy-4-methoxybenzophenone; 500 mg/kg; oral; Male; B6C3F1
[12] = system: Mouse; conditions: 7 h; dosed: 2-Hydroxy-4-methoxybenzophenone; 250 mg/kg; oral; Male; B6C3F1
[13] = system: Rat; conditions: dosed: Perfluorohexanoic Acid, 40 mg/kg, Male, F344
[14] = system: Rat; conditions: dosed: Perfluorohexanoic Acid, 40 mg/kg, Male, F344; remark: listed apart in the source
[15] = system: Rat; conditions: 1 h; dosed: Perfluorohexanoic Acid; 40 mg/kg; Female; Harlan Sprague Dawley
[16] = system: Rat; conditions: dosed: Perfluorohexanoic Acid, 40 mg/kg, oral, Female, Harlan Sprague Dawley
[17] = system: Mouse; conditions: 2.5 min; dosed: 2-Hydroxy-4-methoxybenzophenone; 500 mg/kg; oral; Male; B6C3F1
[18] = system: Mouse; conditions: 4 h; dosed: 2-Hydroxy-4-methoxybenzophenone; 50 mg/kg; iv; Female; B6C3F1
[19] = system: Rat; conditions: dosed: 2-Hydroxy-4-methoxybenzophenone, 100 mg/kg, oral, Male, F344
[20] = system: Mouse; conditions: 4 h; dosed: 2-Hydroxy-4-methoxybenzophenone; 250 mg/kg; oral; Female; B6C3F1
[21] = system: Mouse; conditions: 0.5 h; dosed: 2-Hydroxy-4-methoxybenzophenone; 50 mg/kg; iv; Female; B6C3F1
[22] = system: Mouse; conditions: 10 h; dosed: 2-Hydroxy-4-methoxybenzophenone; 500 mg/kg; oral; Female; B6C3F1
[23] = system: Rat; conditions: 0.25 h; dosed: 2-Hydroxy-4-methoxybenzophenone; 8 mg/kg; iv; Male; F344
[24] = system: Mouse; conditions: 8 h; dosed: 2-Hydroxy-4-methoxybenzophenone; 500 mg/kg; oral; Male; B6C3F1
[25] = system: Mouse; conditions: 12 h; dosed: 2-Hydroxy-4-methoxybenzophenone; 50 mg/kg; iv; Male; B6C3F1
[26] = system: Mouse; conditions: 6 h; dosed: 2-Hydroxy-4-methoxybenzophenone; 50 mg/kg; iv; Male; B6C3F1
[27] = system: Rat; conditions: dosed: 2-Hydroxy-4-methoxybenzophenone, 250 mg/kg, oral, Female, F344
[28] = system: Rat; conditions: dosed: 2-Hydroxy-4-methoxybenzophenone, 250 mg/kg, oral, Male, F344
[29] = system: Rat; conditions: 6 h; dosed: 2-Hydroxy-4-methoxybenzophenone; 500 mg/kg; oral; Female; F344

COc1ccc(C(=O)c2ccccc2)c(O)c1 [2-Hydroxy-4-methoxybenzophenone]
Conditions	concentration in plasma [ng/mL]
[1], 2 h	759
[1], 5 min	25.8
[5], 4 h	35.8
[5], 5 min	8920
[8], 0.5 h	687
[8], 6 h	18.6
[10], 1 h	70.1
[10], 6 h	4.5

Conditions	concentration in plasma [ng/mL]
[2]	18
[3]	302
[4]	23.8
[6]	107
[7]	108
[9]	5.98
[11]	45.9
[12]	16.6

O=C(O)C(F)(F)C(F)(F)C(F)(F)C(F)(F)C(F)(F)F [Perfluorohexanoic Acid]
Conditions	concentration in plasma [ng/mL]
[13], 3 h	19100
[13], 5 min	286000
[14], 0.75 h	98300
[14], 24 h	305
[16], 0.75 h	51700
[16], 12 h	102

Conditions	concentration in plasma [ng/mL]
[15]	9860

O=C(c1ccccc1)c1ccc(O)cc1O [2,4-Dihydroxybenzophenone]
Conditions	concentration in plasma [ng/mL]
[17]	237
[18]	71.2
[20]	228
[21]	202
[22]	58.2
[23]	52.8
[24]	154
[25]	64.3
[26]	136
[29]	241

concentration in plasma [ng/mL]
Conditions	1 h	1.5 h	6 h	8 h
[19]	158	–	44.8	–
[27]	349	–	120	–
[28]	–	361	–	76.7
